Out of some 310,000 compounds screened, about 2,200 (0.71%) showed an effect of 50% or more. The effect is printed as a negative number. The list shows a part of the results.
molecular target: human ether-à-go-go-related gene (hERG) potassium channel (human, UniProt Q12809); assay: primary screen, population patch clamp on CHO cells stably expressing hERG
Sequence (Q12809 whole entry, looked up): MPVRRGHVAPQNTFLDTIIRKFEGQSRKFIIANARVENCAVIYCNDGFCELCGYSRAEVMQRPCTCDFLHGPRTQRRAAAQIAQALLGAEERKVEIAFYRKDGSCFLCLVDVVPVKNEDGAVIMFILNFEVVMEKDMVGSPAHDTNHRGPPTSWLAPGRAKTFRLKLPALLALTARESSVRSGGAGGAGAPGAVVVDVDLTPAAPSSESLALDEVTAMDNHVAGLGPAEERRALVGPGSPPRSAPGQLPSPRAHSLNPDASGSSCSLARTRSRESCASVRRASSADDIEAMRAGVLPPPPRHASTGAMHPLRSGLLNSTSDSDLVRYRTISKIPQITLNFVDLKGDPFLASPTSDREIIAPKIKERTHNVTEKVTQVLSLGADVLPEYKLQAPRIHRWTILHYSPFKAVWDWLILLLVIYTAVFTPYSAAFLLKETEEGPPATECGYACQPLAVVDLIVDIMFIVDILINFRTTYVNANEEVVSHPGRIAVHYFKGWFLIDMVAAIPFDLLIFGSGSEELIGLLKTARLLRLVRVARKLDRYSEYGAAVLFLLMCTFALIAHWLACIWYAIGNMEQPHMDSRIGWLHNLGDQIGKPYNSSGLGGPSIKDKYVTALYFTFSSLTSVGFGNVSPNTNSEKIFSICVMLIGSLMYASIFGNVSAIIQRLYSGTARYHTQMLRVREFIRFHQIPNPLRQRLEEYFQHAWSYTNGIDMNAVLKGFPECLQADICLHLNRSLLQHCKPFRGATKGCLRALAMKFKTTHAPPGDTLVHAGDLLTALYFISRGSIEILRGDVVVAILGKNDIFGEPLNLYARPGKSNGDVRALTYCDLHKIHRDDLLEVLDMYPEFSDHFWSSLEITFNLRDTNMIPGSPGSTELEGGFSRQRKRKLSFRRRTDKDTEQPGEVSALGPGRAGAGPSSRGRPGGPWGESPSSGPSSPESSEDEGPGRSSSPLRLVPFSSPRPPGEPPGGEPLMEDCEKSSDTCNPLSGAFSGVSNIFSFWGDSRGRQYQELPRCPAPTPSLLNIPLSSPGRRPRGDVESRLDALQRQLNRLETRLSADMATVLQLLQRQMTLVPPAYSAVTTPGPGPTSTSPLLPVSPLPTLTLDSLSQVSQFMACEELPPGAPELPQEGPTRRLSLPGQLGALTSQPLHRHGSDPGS

Structure (SMILES) | hERG current change (%, negative = inhibition) at 1uM [%]
COc1ccc(CNc2ncccn2)cc1OC | 10.5
CCOCCc1nnc(NC(=O)C2CC(=O)N(CCc3ccc(F)cc3)C2)s1 (stereo not shown) | 12.2
COc1ccc(-n2c(SCC#N)nc3ccccc3c2=O)cc1 | 13.4
O=C1c2ccccc2C(=O)N1CCCc1nc(-c2ccccn2)no1 | -4.38
N#Cc1nc(-c2ccccc2)oc1N1CCCCC1 | 5.29
O=C(CSc1nc2ccc(N3CCOCC3)cc2c(=O)n1CCc1ccccc1)NCC1CCCO1 (stereo not shown) | -10.6
Cc1cc(C)c2c(N)c(C(=O)c3ccc(Br)cc3)oc2n1 | 12.1
CC(=O)N/C(=N/c1nc(C)cc(C)n1)Nc1cccc(C)c1C | 8.41
CC(C)c1nnc(NC(=O)CCC(=O)NC2CCCc3ccccc32)s1 (stereo not shown) | 13.5
CCN(CC)c1ccc(S(=O)(=O)N2CCOCC2)cc1NC(=O)CSc1n[nH]c(N)n1 | 2.8
COc1ccc(CCNC(=O)C(=O)c2cn(CC(=O)N3CCOCC3)c3ccccc23)cc1OC | 5.94
O=C(CS(=O)(=O)c1c[nH]c2ccccc12)Nc1ccc2c(c1)OCCO2 | 7.63
CCOc1ccc(NC(=O)Cn2cc(C(=O)C3CC3)c3ccccc32)cc1 | 10.4
Cc1nnc(-c2ccco2)c2cn(-c3cccc(Br)c3)nc12 | 9.82
C=CCC(C=C)S(=O)(=O)c1ccc(C)cc1 (stereo not shown) | 4.84
CC(C)c1ccc(/C=C/C(=O)Nc2ccc(CN3CCOCC3)cc2)cc1 | -1.74
COc1ccc(OC(=O)COc2ccc(Cl)cc2)cc1 | 11.7
O=C(NCc1cc2ccccc2[nH]1)C1CCC(=O)N(CCCN2CCCC2=O)C1 (stereo not shown) | 10.1
O=C(COC(=O)/C=C/c1ccc([N+](=O)[O-])cc1)NCC1CCCO1 (stereo not shown) | 12.3
Cc1cc(C(=O)COc2ccccc2[N+](=O)[O-])c(C)n1C1CC1 | 14.5
CCOC(=O)C1C(=O)NC(N2CCN(c3ccccc3)CC2)=NC1c1ccco1 (stereo not shown) | 7.35
O=C(CSc1ccc(-c2ccc(Br)cc2)nn1)NC1CCCC1 | 12.4
CCCN1CCN(C(=O)c2ccc(-c3ccc([N+](=O)[O-])cc3)o2)CC1 | -70.1
CN(c1ccc(C(=O)NCc2ccco2)cc1)S(C)(=O)=O | 7.2
O=C(CCn1c(SCC(=O)NCc2ccco2)nc2ccccc2c1=O)NCCc1ccccc1 | -9.69
COc1ccc2cc(C(=O)NCc3ccco3)c(=O)oc2c1 | 21.6
Cc1ccc(S(=O)(=O)/N=C(/Nc2ccc3[nH]c(=O)[nH]c3c2)c2ccc(F)cc2)cc1 | 3.51
Cc1noc(C)c1-c1nc(CS(=O)(=O)c2ccccc2)no1 | 2.56

Structure (SMILES) | hERG current change (%, negative = inhibition) at 1uM [%]
CC(=O)C1=C(O)C(=O)N(CCc2c[nH]c3ccccc23)C1c1ccc(C)cc1 (stereo not shown) | 19.7
COc1ccc(CCNC(=O)CN2C(=O)c3cccc4cccc(c34)C2=O)cc1OC | 8.16
COc1ccc(C)cc1NC(=S)NNC(=O)c1ccccc1Cl | 6.92
O=C(CSc1ncc(-c2ccccc2)n1-c1ccccc1)NCc1ccco1 | 6.85
COc1ccc(CNC(=O)C(c2cccs2)N(Cc2ccco2)C(=O)Cc2cccs2)cc1 (stereo not shown) | 11.2
N#Cc1ccccc1CN1C(=O)NC(Cc2c[nH]c3ccccc23)C1=O (stereo not shown) | 4.91
CCC(C)Oc1ccccc1C1CC(=O)NC2=C1C(=O)CCC2 (stereo not shown) | 8.45
N#Cc1cccnc1Nc1cccc(Cl)c1 | 5.52
Cn1nc(-c2ccc(C(=O)NCCO)cc2)c2ccccc2c1=O | 22.3
Cc1nc2nc(C)c(CCC(=O)N3CCC4(CC3)OCCO4)c(C)n2n1 | -1.79
Clc1ccc(CNc2ccc(CNc3ncn[nH]3)cc2)cc1 | -3.33
Cc1cc(NC(=O)COC(=O)c2nccnc2N)n(-c2ccccc2)n1 | 17.7
CS(=O)(=O)c1ccc(Cl)c(NC(=O)CSc2nncn2-c2ccccc2)c1 | -1.92
CCOc1cc(C)nc(NCc2ccccc2)n1 | 5.36
CCc1ccc(CNC(=O)C2Cc3cc(S(=O)(=O)N4CCCC4)ccc3N2C(C)=O)cc1 (stereo not shown) | 2.93
CC(C)n1nc(C(=O)OCC(=O)c2c[nH]c3ccccc23)c2ccccc2c1=O | -1.32
COc1ccc(OC)c(CNC(=O)Cn2nc(C)c3c(C)n(-c4ccc(C)cc4)nc3c2=O)c1 | 13.1
N#Cc1ccccc1OCC(=O)OCCCOC(=O)COc1ccccc1C#N | 15.7
COC(=O)C1=C(C)NC(=O)C1(Nc1nccs1)C(F)(F)F (stereo not shown) | 8.37
O=C(c1ccccc1C(=O)N1CCN(c2ccc(F)cc2)CC1)N1CCN(c2ccc(F)cc2)CC1 | -48.4
Cc1ccc(-n2c(-c3cccs3)nc3nc4ccccc4nc32)cc1 | 10.5
O=c1[nH]c(O)c(C=Nc2ccc(Cl)c(C(F)(F)F)c2)c(=O)[nH]1 | 9.83
CC(C)(C)c1cc(NC(=O)COC(=O)c2ccc(O)cc2O)n(-c2ccccc2)n1 | -34.6
COCCCNC(=O)c1cc2c(=O)n3cc(C)ccc3nc2nc1NCC1CCCO1 (stereo not shown) | -26.6
COCCCNc1nc(N)c([N+](=O)[O-])c(NCc2ccccc2)n1 | 13
COCCOCC(O)CN1CCN(c2ccc(C)cc2)CC1.O=C(O)C(=O)O (stereo not shown) | -1.32
CC(C)C(=O)Nc1ccc(-c2nnc(-c3ccccc3)o2)cc1 | 5.51

— paper PMC4336329 (PLoS ONE, 2015)
